# The supplement of paper PMC3334620
# Whole data set: some 33,000 sequences, median “E-score (-0.5 to 0.5)” near -0.012, cut for the highest 2% near 0.27. The list shows a part of the results.
# Biological target: T1, Vhr1 (UniProt P40522)
# T1 sequence: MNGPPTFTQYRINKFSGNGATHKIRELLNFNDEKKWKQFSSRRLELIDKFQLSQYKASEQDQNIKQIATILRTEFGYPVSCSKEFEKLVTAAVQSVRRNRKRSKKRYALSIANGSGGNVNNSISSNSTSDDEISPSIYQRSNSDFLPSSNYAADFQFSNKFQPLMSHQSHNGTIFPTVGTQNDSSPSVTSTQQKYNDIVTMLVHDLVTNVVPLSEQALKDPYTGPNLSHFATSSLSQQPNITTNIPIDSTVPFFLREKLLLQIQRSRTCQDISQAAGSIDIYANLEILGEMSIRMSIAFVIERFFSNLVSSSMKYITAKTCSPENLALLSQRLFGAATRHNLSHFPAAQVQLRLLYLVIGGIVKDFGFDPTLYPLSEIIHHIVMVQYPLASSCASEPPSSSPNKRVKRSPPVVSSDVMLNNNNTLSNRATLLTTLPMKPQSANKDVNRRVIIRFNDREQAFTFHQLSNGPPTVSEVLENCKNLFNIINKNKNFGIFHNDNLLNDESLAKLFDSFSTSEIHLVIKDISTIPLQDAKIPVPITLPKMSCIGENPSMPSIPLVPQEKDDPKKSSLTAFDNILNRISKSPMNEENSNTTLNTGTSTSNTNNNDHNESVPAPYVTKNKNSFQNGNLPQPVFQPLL
# Assay: PBM E-score (8-mer binding enrichment) (E-score (-0.5 to 0.5)); higher = stronger / more preferred TF binding; most listed sequences are background and not binding sites
# Details: protein concentration: 200 nM; construct: GST-full length
# Procedure, shortened: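 Using PURExpress in vitro transcription/translation, GST-tagged yeast transcription factors were made in full-length or DNA-binding-domain form. These were applied at about 100-200 nM to double-stranded universal all-10-mer Agilent arrays, and bound protein was detected with fluorescent anti-GST. Scans were normalised with masliner before the Universal PBM Analysis Suite assigned E-scores to ungapped eight-base words pooled with their reverse complements.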
row,Sequence,PBM E-score
1,ACCGGAGT,0.163
2,GGCTTTAC,-0.0288
3,AGGAGAAA,-0.178
4,CTCTATGA,-0.0312
5,AAATTGCG,0.0184
6,AATAGACA,-0.0158
7,GACCACTA,0.178
8,GTGTACAA,-0.0101
9,ATCATGGC,0.143
10,ACATGTCG,0.0102
11,GGCGCTGA,-0.033
12,AGTCGTCC,0.191
13,ACTGCCAC,0.0455
14,AAGCATAC,0.0271
15,GTTTTCAA,-0.143
16,GGAGCATA,0.154
17,CCGCCACG,0.0872
18,CACCGTTC,-0.138
19,ACTATGGG,0.00269
20,ACTTGGTC,0.0528
21,CTATCATC,0.0643
22,ACTGAGGG,-0.00904
23,CGGTCCAA,-0.203
24,ATAAAGCA,-0.153
25,ATATCAAG,0.128

row,Sequence,PBM E-score
1,CATACAGG,-0.0305
2,AGATGTAA,-0.128
3,CCCCTGAG,0.0777
4,AATCGTTA,-0.215
5,TCCACGGA,0.0343
6,ATATGCCC,-0.181
7,AGGAACTA,-0.159
8,ATGCCAGG,0.0307
9,ATAGGAAG,0.0182
10,CGTGATCA,0.0904
11,GATGACCC,0.197
12,ACTCGAAC,0.0259
13,AGACTGCG,-0.0524
14,CCAGCTCC,-0.12
15,GAATTGCA,-0.182
16,ATACCTAC,0.04
17,GCTTGAGA,-0.202
18,AGTACGGC,0.138
19,ATAGTTTA,0.017
20,CTAGACGA,-0.217
21,ACACCGGG,0.093
22,AGACTGGG,0.146
23,TATTCTGA,-0.0375
24,CTATGGAG,-0.029
25,AAGTTTAC,-0.0802

row,Sequence,PBM E-score
1,GGGTGCAA,0.0775
2,TAAAGATA,-0.0185
3,GGGAAAGA,-0.185
4,GTCAATGA,0.00946
5,CTGAGATA,-0.128
6,ACTGAGCT,-0.0929
7,AAAGACTT,-0.315
8,CAAGGCGC,0.0922
9,AAAATGCG,-0.134
10,TAGTAAAA,0.0646
11,ATCAAGTA,0.0754
12,CCATACGA,0.0408
13,ACAATCTG,-0.0468
14,AGTATGTA,-0.033
15,ACACCGGC,0.0589
16,CGACTGTA,-0.0309
17,AAGCAGTC,0.0873
18,TATCCTAA,-0.158
19,CTTCACTA,-0.0295
20,ACGCTAGA,-0.162
21,ACCGAGGA,-0.0417
22,TAGTGCCA,-0.162
23,AACCGTCA,-0.0439
24,CTGGCGAC,0.0818
25,AACCTTCG,0.00561

row,Sequence,PBM E-score
1,CGTCTCTA,-0.0812
2,ATATGCTA,0.217
3,GCAAATAA,-0.0475
4,AAGTAAAG,-0.224
5,TAGGTAGA,0.0176
6,ATTCCCAG,0.00366
7,CCTTCAAA,-0.249
8,TTGTCAAA,-0.237
9,GTACTCAC,0.263
10,GCTTCTAC,-0.164
11,AGCAATGG,-0.00957
12,ATGGTGAG,0.0663
13,GACCAGTC,0.12
14,AGGACAGA,-0.0515
15,CCGGTGAC,0.16
16,ACTAGCAC,0.0525
17,CTCCGATA,-0.174
18,AGTTGTAA,-0.0353
19,ATTTTATA,0.0319
20,CCTCCCAA,-0.246
21,ACGCTGCT,-0.204
22,GAACTAGA,-0.0357
23,GGAGGAGA,-0.164
24,CAAATTGC,-0.0366
25,CTTGAATA,-0.141

row,Sequence,PBM E-score
1,CCAAGTGA,-0.0332
2,ATCGCACC,0.00144
3,AAGGTTCC,-0.277
4,GGCGTACC,0.0453
5,ATTAGGAG,0.152
6,CCGATAAC,-0.00184
7,ACAGTGAT,0.156
8,AATGCGGG,0.172
9,ATGGAAGC,-0.0207
10,CAGACATC,0.17
11,GTTTTGAA,-0.0473
12,GGCGGTAA,0.02
13,AAACTTAG,-0.266
14,ATCTGCCC,-0.0314
15,TCGATACA,0.0705
16,CATAGATA,0.176
17,TTCGCGAA,0.164
18,CGGAAAGC,-0.21
19,CCTAACAA,-0.175
20,CATCGCTC,0.0629
21,CAGGCTGC,0.0864
22,GTATTAAA,-0.0027
23,GGATCGCA,0.105
24,CCAGGAGA,-0.161
25,CATGGAGA,0.155

row,Sequence,PBM E-score
1,CCTGATAA,0.0435
2,CCCCTAAA,-0.331
3,TAACGGTA,-0.00831
4,TACTTTGA,0.107
5,GGGTCCGA,-0.0382
6,GCTGGGTA,0.0614
7,AACAGTAT,-0.0379
8,ACTTATGG,-0.0321
9,CCATTGAG,-0.0424
10,AACTTCTC,-0.225
11,CCGATTTC,-0.129
12,CCCCGCCC,0.258
13,ATACCAAA,0.0187
14,ATGCACTC,-0.0811
15,ACAGATAG,-0.0466
16,ATTTCGTA,0.0112
17,GGAGTTTA,-0.253
18,AACGTTCC,-0.137
19,CTTGAGAA,-0.168
20,AAGTAAGT,-0.079
21,AACGGCAG,0.107
22,ACTTATAC,0.0273
23,ATTGTGTC,0.143
24,CAATTCTC,-0.0891
25,GATCTCGC,0.095

row,Sequence,PBM E-score
1,CTGCCGCC,-0.203
2,GTTGCCTA,-0.162
3,CAAGTTGA,0.0434
4,GACCATCA,-0.0183
5,AAAGTTAA,-0.213
6,TACTATGA,0.317
7,AGTCGGAC,-0.0678
8,ATACCGCG,0.211
9,ATTTATTG,-0.113
10,ATAGAAAG,-0.199
11,GTTGGACA,-0.0352
12,GAGCGCTC,-0.0158
13,AATTGCGC,-0.0479
14,CATGGTAA,-0.0174
15,ACGTATAC,0.0616
16,CTTTCCAC,-0.0934
17,GGCTAGTA,0.194
18,AGTTAGGA,-0.0805
19,ACTTCCCG,-0.112
20,ACCCTCGT,0.0822
21,CGTATCGA,-0.0288
22,CGTGGGCA,-0.219
